Measurements as given in the BET-seq Pho4 binding data (Le et al. 2018).
Some of the results follow. The energies were worked out here from pooled read counts, against the library average; single values are noisy.

molecular target: T1, Pho4 (S. cerevisiae) (UniProt P07270); experiment: relative binding free energy (BET-seq); higher = weaker binding; settings: reference: library average
T1 sequence: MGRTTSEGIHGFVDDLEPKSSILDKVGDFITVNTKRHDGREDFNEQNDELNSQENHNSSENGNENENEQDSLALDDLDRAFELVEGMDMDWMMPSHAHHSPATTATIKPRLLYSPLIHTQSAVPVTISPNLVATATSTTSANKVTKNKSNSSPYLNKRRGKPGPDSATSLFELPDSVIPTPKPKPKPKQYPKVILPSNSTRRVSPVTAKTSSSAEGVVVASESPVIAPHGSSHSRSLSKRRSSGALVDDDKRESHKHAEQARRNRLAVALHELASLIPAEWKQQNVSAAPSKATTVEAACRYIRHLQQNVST

Sequence | relative binding free energy [kcal/mol]
TAGTACACGTGCTATG | 0.08
ATGTCCACGTGCGTGT | -0.13
TGTATCACGTGTAAGA | 0.21
TAGATCACGTGGTGGG | 0.11
AGTCTCACGTGTGGGT | 0.13
TAAGACACGTGTGAGT | 0.09
GAGGACACGTGTTGGG | 0.16
CGGGACACGTGAGTCG | 0.32
TGTTTCACGTGCGATC | 0.36
TATTTCACGTGAGTTT | 0.45
TTGGACACGTGAGCGT | 0.24
TGGTACACGTGGGCGG | -0.09
AGTTGCACGTGATGTC | 0.15
TGTTGCACGTGCTTTG | 0.04
TGGGGCACGTGTTCAA | -0.16
GACGTCACGTGTGTAG | 0.2
AGTGGCACGTGCGAAG | -0.15
ATGTGCACGTGAAATG | 0.16
AATAGCACGTGTATAT | 0.07
ATGATCACGTGTGGGT | 0.24
TAAATCACGTGTTTTA | 0.1
TGTAGCACGTGATATA | 0.08
CGAATCACGTGTTGTG | 0.01

Sequence | relative binding free energy [kcal/mol]
GGTAACACGTGGAGGT | 0.11
CTTATCACGTGGTATA | 0.07
GATGTCACGTGAACGG | 0.45
GGCATCACGTGAAGTG | 0.39
GTTTGCACGTGCACTT | 0.1
GTGGGCACGTGATATA | -0.05
TGTTGCACGTGTAGAG | 0.21
CGGGGCACGTGGTGCG | -0.29
AGGGTCACGTGTTGCC | 0.14
GTTTACACGTGGTGCA | 0.02
GAAGTCACGTGACGGT | 0.2
TTGAGCACGTGTGGAC | -0.03
ATTGGCACGTGGGGTC | -0.28
TGTAGCACGTGTTTGC | -0.02
CGACGCACGTGTGGTG | -0.07
GAGTTCACGTGAGATG | 0.51
TTGGCCACGTGATTGT | 0.07
ATTAGCACGTGGGTCG | -0.45
TGGGTCACGTGTGCTG | 0.12
ATGTACACGTGAGGCG | 0.41
TAAGGCACGTGACTGT | -0.01
TGGCACACGTGTATGG | 0.01
ATGCGCACGTGGGTCT | -0.33

Sequence | relative binding free energy [kcal/mol]
GCGTTCACGTGGTATG | 0.33
AGACGCACGTGTTGTG | -0.12
GGATTCACGTGGGAGG | 0.01
GATAGCACGTGGGAGT | -0.16
GCGGGCACGTGGCGTG | -0.19
GGCGGCACGTGCTGGC | -0.09
TGTTGCACGTGCGAAG | -0.05
TTCGACACGTGATGTG | 0.01
CTTTGCACGTGGACTG | -0.01
CGTATCACGTGGGTAG | 0.04
TTAGGCACGTGCAATT | -0.11
TTCGGCACGTGGGGGA | -0.28
AATGACACGTGAGTTT | 0.25
GTTGTCACGTGCTATA | 0.17
TTGTCCACGTGTAATT | 0.1
CGTTCCACGTGTAGGG | 0.06
TGTCGCACGTGTTGCG | -0.07
ATAGTCACGTGTTTCA | 0.14
TGGTTCACGTGTTTAT | 0.38
GGTGCCACGTGGCGTG | -0.07
TTGGGCACGTGGGTAA | -0.19
ATATACACGTGATTTA | 0.19
GCTGGCACGTGTGTAA | -0.11

Sequence | relative binding free energy [kcal/mol]
GGGATCACGTGAAGCT | 0.5
GCTGTCACGTGATAGG | 0.24
ATAAACACGTGAGTGT | 0.22
TAGATCACGTGGGCGA | 0
CGTTTCACGTGTAGGA | 0.2
GTAGGCACGTGTCGGG | -0.14
GGTGACACGTGTGGTG | 0.03
TTGTGCACGTGTCTTG | 0.13
TTTAGCACGTGTATGA | -0.07
TCTGTCACGTGCTGTG | 0
GGTAACACGTGATTAG | 0.15
TTGGACACGTGCAAGG | 0.21
GTGAACACGTGAGGTG | 0.19
ATTTTCACGTGTGGTG | 0.26
GTGTTCACGTGAATTC | 0.43
TGTGTCACGTGAGGGA | 0.39
GGGAACACGTGAGCGG | 0.3
GTGGTCACGTGCGAGG | 0.08
TGGTTCACGTGTCGAA | 0.18
TGAGGCACGTGAGCGG | 0.05
ATCGTCACGTGTTGAT | 0.15
TATGGCACGTGCAGTG | -0.11
GCAATCACGTGGTGGG | 0.04

Sequence | relative binding free energy [kcal/mol]
ATCTACACGTGTTGGG | 0.03
TCTCTCACGTGTGGTT | 0.24
ATTTTCACGTGGCTGG | 0.22
CATGTCACGTGGGTAT | -0.09
GTAAGCACGTGGGGTC | -0.16
GTCTTCACGTGCGTTG | 0.17
CATAGCACGTGAAGGT | 0.23
GTTCGCACGTGCAGTG | 0.01
AGGTACACGTGTGGTT | 0.09
GGTTACACGTGCGCGG | -0.02
CGTGGCACGTGAGGCT | 0.1
TAAGGCACGTGAATTA | 0.19
AGATGCACGTGGAAGT | -0.03
ATTCTCACGTGTATGA | 0.27
GTAGACACGTGTAGAG | 0.03
TTGCTCACGTGTGTGC | 0.13
AAGTGCACGTGGGTGA | -0.16
ATAGCCACGTGGGTGT | -0.19
ATGCTCACGTGGCGGT | 0.12
GATATCACGTGGATGT | 0.11
AGTTGCACGTGTTTTA | 0.01
TTTATCACGTGCGGGA | 0.1
AGTGGCACGTGTCGTA | -0.12
